Source: PMC4336329 (PLoS ONE, 2015)
The whole screen tested about 310,000 compounds, of which about 14,000 (4.5%) showed an effect of 50% or more. The effect is printed as a negative number. The list shows a part of the results.

molecular target: human ether-à-go-go-related gene (hERG) potassium channel (human, UniProt Q12809); experiment: primary screen, population patch clamp on CHO cells stably expressing hERG
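Also: peak tail current of the secondary pulse compared with the same well before compound.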

human ether-à-go-go-related gene (hERG) potassium channel, sequence (Q12809 whole entry, looked up): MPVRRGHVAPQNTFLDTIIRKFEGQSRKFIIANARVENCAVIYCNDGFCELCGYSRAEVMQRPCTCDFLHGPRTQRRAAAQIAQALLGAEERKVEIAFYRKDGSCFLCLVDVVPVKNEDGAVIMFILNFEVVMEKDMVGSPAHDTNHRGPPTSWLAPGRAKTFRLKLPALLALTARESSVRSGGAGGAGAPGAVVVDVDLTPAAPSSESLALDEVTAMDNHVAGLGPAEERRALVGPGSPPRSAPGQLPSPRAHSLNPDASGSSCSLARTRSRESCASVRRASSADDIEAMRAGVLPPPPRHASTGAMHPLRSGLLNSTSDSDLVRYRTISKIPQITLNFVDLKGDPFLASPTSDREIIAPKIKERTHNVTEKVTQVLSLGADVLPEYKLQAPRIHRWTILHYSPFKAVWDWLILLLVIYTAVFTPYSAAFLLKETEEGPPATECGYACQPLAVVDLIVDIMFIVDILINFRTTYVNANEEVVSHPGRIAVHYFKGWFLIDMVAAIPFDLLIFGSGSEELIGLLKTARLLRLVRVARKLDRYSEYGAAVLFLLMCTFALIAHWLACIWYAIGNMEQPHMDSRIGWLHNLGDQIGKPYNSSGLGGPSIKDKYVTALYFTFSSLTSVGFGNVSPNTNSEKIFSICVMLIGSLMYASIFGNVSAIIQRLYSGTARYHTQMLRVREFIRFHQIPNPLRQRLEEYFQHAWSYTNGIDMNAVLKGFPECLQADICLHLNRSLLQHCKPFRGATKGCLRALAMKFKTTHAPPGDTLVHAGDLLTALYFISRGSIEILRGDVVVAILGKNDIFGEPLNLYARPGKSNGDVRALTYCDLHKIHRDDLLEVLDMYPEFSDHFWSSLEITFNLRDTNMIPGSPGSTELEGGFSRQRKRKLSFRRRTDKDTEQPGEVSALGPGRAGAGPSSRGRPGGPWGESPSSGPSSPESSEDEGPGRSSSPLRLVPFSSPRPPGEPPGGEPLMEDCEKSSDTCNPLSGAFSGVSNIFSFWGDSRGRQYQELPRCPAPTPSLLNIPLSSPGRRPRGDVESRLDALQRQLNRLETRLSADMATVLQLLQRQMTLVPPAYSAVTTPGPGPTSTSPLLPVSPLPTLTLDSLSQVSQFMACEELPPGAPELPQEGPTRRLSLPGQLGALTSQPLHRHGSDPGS

| SMILES | hERG current change (%, negative = inhibition) at 10uM |
| --- | --- |
| CCOCCCN(CCC#N)C(=O)C1CCN(S(=O)(=O)c2ccc(-n3cnnn3)cc2)CC1 | -11.7% |
| N#CC(C#N)=CNc1cccnc1 | 5.48% |
| O=C(O)[C@@H]1CCCN(S(=O)(=O)c2cccc3cccnc23)C1 | 11.6% |
| CSCCC(NC(=O)/C(=C/c1ccco1)NC(=O)c1ccc(Br)o1)C(=O)O (stereo not shown) | 5.43% |
| COc1ccccc1-n1c(=S)sc2c(=O)n(Cc3ccco3)c(SC)nc21 | -4.31% |
| C[C@@H]1CN(C(=O)c2nc3ccc(Cl)cn3c2CN[C@H]2CCCCNC2=O)C[C@H](C)O1 | 11.4% |
| CCCCCCC1CCC(c2nc(-c3ccncc3)no2)CC1 (stereo not shown) | 3.95% |
| Cc1cc(SCCOc2ccccc2)nc(N)n1 | 3.41% |
| O=C(NCC(=O)N1CCOCC1)c1ccc(Cl)cc1 | -4.7% |
| O=C1CC(C(=O)Nc2ccc(O)c(C(=O)O)c2)C(c2ccccc2)O1 (stereo not shown) | 1.11% |
| Cc1cccc(C)c1NC(=O)CN(C)C(=O)c1ccc(COc2ccccc2)cc1 | -11.2% |
| Nc1nc(COc2ccc3ccccc3c2)cs1 | -15.1% |
| O=C(COc1ccc2oc(-c3ccccc3)cc(=O)c2c1)NCc1ccco1 | 14.7% |
| O=C1CC2(CCCC2)C(=O)N1c1ccc(S(=O)(=O)NCC2CC2)cc1Cl | -0.753% |
| O=C(CCS(=O)(=O)c1cccc2nonc12)N1CCOCC1 | 14.6% |
| Cc1cccc(N(C(=O)Cn2nnc3ccccc32)C(C(=O)NCc2ccco2)c2ccncc2)c1C (stereo not shown) | -6.22% |
| O=C(Nc1ccc(Cl)c(S(=O)(=O)N2CCOCC2)c1)c1cc(-c2ccccn2)nc2ccccc12 | -32.7% |
| COc1ccc(OCc2cccc(C(=O)Nc3ccc(CN4CCCCC4)cc3)c2)cc1 | -72.8% |
| Cl.FC(F)(F)c1ccc(CN2CCNCC2)cc1 | 0.155% |
| CCOCCCN1C(=O)CN(C2CCCCCC2)C(=O)C1c1ccc(OC)cc1 (stereo not shown) | -9.01% |
| COC(=O)c1cc(C(=O)OC)n(Cc2ccc(Br)cc2)n1 | -40.6% |
| Cc1noc(NS(=O)(=O)c2ccc(N/C=C/C(=O)c3cccnc3)cc2)c1C | -0.605% |

| SMILES | hERG current change (%, negative = inhibition) at 10uM |
| --- | --- |
| CCOC(=O)c1c(C(C)(C)C)oc2ccc(O)cc12 | 1.69% |
| Cc1cc(C)c(S(=O)(=O)NC2CC3CCC2C3)c(C)c1 (stereo not shown) | -8.7% |
| Cc1cc(NC(=O)CSc2nc3cc(C)c(C)cc3cc2C)no1 | 14.5% |
| COc1ccc(S(=O)(=O)N2CCCC(C(=O)N3CCOCC3)C2)cc1Cl (stereo not shown) | -14% |
| Cn1c2ccccc2c2cnn(CC(=O)N3CCC4(CC3)OCCO4)c(=O)c21 | -22.2% |
| CCCN(CCO)Cc1ccc(Cl)c(Cl)c1 | -12.9% |
| Cc1cccc(OCCCC(=O)NC(C)C)c1 | -2.02% |
| CC(=O)N1CCC2(CC1)C/C(=N\NC(=S)Nc1ccccc1C)c1cc(O)ccc1O2 | -61.1% |
| Brc1ccc(-c2nn3c(-c4ccccn4)nnc3s2)o1 | -19.4% |
| O=c1[nH]c2c(c3c1CCCC3)CCCC2 | 7.88% |
| Cc1cc(C)cc(NC(=O)NN2C(C)CCCC2C)c1 (stereo not shown) | -14.3% |
| Cc1csc(N/N=C/c2ccc(O)c([N+](=O)[O-])c2)n1 | -19.1% |
| C[C@H](Cc1ccccc1)Nc1ncnc2c1ncn2[C@@H]1O[C@H](CO)[C@@H](O)[C@H]1O | 14.9% |
| CN1C(=O)C(=Cc2coc3ccccc3c2=O)C(=O)N(C)C1=O | 2.32% |
| COc1ccc2c(c1OC)C(=O)N1N=C(c3ccc(-c4ccccc4)cc3)CC21 (stereo not shown) | 4.68% |
| Cl.NCCc1nnc(SCc2ccccc2Cl)o1 | 20.3% |
| N#CC1=C(N)Oc2cc(N)ccc2C1c1cccnc1 (stereo not shown) | -3.76% |
| O=C(NNC(=O)C1CCN(Cc2ccc(F)cc2Cl)CC1)Nc1ccc([N+](=O)[O-])cc1 | -26.4% |
| O=C(CNC(=O)c1ccc(Br)cc1)NCc1cccnc1 | 2.22% |
| CCOC(=O)C1CCCN(C(=O)c2cccc(S(=O)(=O)N(C)c3c(C)n(C)n(-c4ccccc4)c3=O)c2)C1 (stereo not shown) | -19.7% |
| O=C(c1ccco1)N1CCN(C(=O)c2cnn(-c3cccc(F)c3)c2C2CCNCC2)CC1 | 18.7% |
| COc1ccccc1/C=C/c1ccc2cccc(O)c2n1 | 11.2% |

| SMILES | hERG current change (%, negative = inhibition) at 10uM |
| --- | --- |
| COc1cccc(-n2nc(C(=O)N3CCN(Cc4ccccc4)CC3)c3ccccc3c2=O)c1 | -50.3% |
| COc1ccc(CCNC(=O)C2CCN(C(=O)c3ccccc3C)CC2)cc1 | 22.3% |
| CCO[C@H]1OC(C(=O)N2CCN(Cc3ccc4c(c3)OCO4)CC2)=C[C@@H](c2ccccc2)[C@@H]1CCCO | -17.3% |
| O=C(NCCCN1CCOCC1)c1cc(-c2ccc(Br)cc2)on1 | -58.6% |
| COc1ccccc1S(=O)(=O)Cc1ccc(C(=O)NCc2ccccc2)o1 | -3.37% |
| Cc1c(C(=O)NC2=NCCS2)oc2ccccc12 | -25.4% |
| COc1ccccc1-c1cc(C(=O)NCc2cccs2)no1 | -0.487% |
| O=C(CSc1nnc(CNC(=O)c2ccc(F)cc2)o1)NCC1CCCO1 (stereo not shown) | 5.71% |
| COCCCN1CN=C(Nc2nc3ccccc3o2)NC1 | 5.82% |
| COc1ccccc1C(=O)Nc1nnc(C)s1 | 0.34% |
| CCN1CCN(c2ccc(NC(=O)c3cccc4ncccc34)cc2)CC1 | -5% |
| CCOc1cc(C(=O)NCCCNC(=O)c2cc(OCC)c(OCC)c(OCC)c2)cc(OCC)c1OCC | 22.3% |
| CN(CC(=O)Nc1cccc(F)c1)C(=O)c1cn(-c2ccccc2)nc1-c1cccs1 | 9.6% |
| COc1ccc(OC)c(S(=O)(=O)N2Cc3ccccc3CC2C(=O)Nc2nccs2)c1 (stereo not shown) | 22.2% |
| Cc1cccc(NS(=O)(=O)c2c(C)noc2C)c1 | 4.75% |
| Cc1ccc2[nH]c3c(c2c1)CN(C(=O)CN(C)CC1OCCO1)CC3 | 12.7% |
| COc1cc2c(cc1OC)CN(Cc1nc3ccsc3c(=O)[nH]1)CC2 | -11.6% |
| C/C(=N\Nc1ccc([N+](=O)[O-])cc1[N+](=O)[O-])c1cccnc1 | -11.7% |
| O=C(Nc1cccn(Cc2c(Cl)cccc2Cl)c1=O)c1ccc(Cl)cc1 | -0.226% |
| C[C@H]1Oc2ccccc2C(=O)C1C(=O)c1ccccc1 (stereo partly shown) | -9.41% |
| COc1ccccc1N1CCN(C(=O)CCNS(=O)(=O)c2ccc(Br)s2)CC1 | -31.3% |
| COP(=O)(OC)c1nc(-c2ccc(C)cc2)oc1N1CCCCC1 | -10.2% |

| SMILES | hERG current change (%, negative = inhibition) at 10uM |
| --- | --- |
| CCOC(=O)C1=C(N)Oc2ccc3ccccc3c2C1c1cccnc1 (stereo not shown) | 0.98% |
| CN(C)CCOCCOc1ccc(Cl)c2ccccc12.O=C(O)C(=O)O | -44.5% |
| CCCOc1ccccc1C1C(C(=O)OC)=CN(C(C)C)C=C1C(=O)OC | -37.2% |
| CCCN1Cc2cccc(C(=O)NC(CC(=O)OCC)c3ccc(OC(C)C)cc3)c2C1=O (stereo not shown) | -37.6% |
| COc1ccc(OCC(=O)NNC(=O)C(=O)Nc2cc(OC)ccc2OC)cc1 | 12.8% |
| CC1Cc2ccccc2N1C(=O)CSc1nnc(-c2ccccc2)c(-c2ccccc2)n1 (stereo not shown) | -3.48% |
| CCOC(=O)c1cnn(-c2cc(C)nc3c(-c4ccccc4)c(C)nn23)c1N | 8.63% |
| O=C(CN1CCN(C(=O)c2ccco2)CC1)Nc1ccc(Br)cc1 | 5.38% |
| COc1ccc(CCNC(=O)CCC(=O)N2CCN(S(=O)(=O)c3ccccc3)CC2)cc1OC | 4.4% |
| Cc1ccc2sc3ccc(NC(=O)c4ccccc4Cl)cc3c(=O)c2c1 | 8.98% |
| O=C(CSC1CC(=O)N(CCc2ccccc2)C1=O)Nc1cccc(Cl)c1 (stereo not shown) | 11.8% |
| Cn1c(=O)c2c(nc(Br)n2C/C=N/NC(N)=S)n(C)c1=O | 7.76% |
| NC(=O)c1ccccc1NC(=O)CN1CCOCC1 | 7.22% |
| Cc1cc(N2CCCCC2)nc(SCC(=O)c2ccccc2)n1 | 7.79% |
| CC(C)CN(C(=O)c1ccc(N2CCCC2=O)cc1)C1CCS(=O)(=O)C1 (stereo not shown) | 6.18% |
| CC1CCN(C(NC(=O)c2ccco2)C(=O)c2ccccc2)CC1 (stereo not shown) | -23.8% |
| CCCCNc1c(-c2ccc(OC)c(SC3CCCCC3)c2)nc2cnccn12.O=C(O)C(F)(F)F | -14.4% |
| C=CCOC(=O)C1=C[C@H](c2csc3ccccc23)C[C@H](OCc2ccc(CO)cc2)O1 | -3.64% |
| NC(=O)c1ccc(NC(=O)CN2CCN(c3ccccc3)CC2)cc1 | 12.6% |
| COCc1c(C(N)=O)nnn1-c1nonc1N | 8.94% |
| C/C(=N\O)C(=O)NCC1CCNCC1 | 7.94% |
| O=Cc1c(N2CCOCC2)nc2ccccn2c1=O | 9.17% |
